According to paper PMC7819943, “Rice protein-binding microarrays: a tool to detect cis-acting elements near promoter regions in rice”:
This is one part of the list.

biological target: T1, OsWOX13 (Oryza sativa, UniProt Q5QMM3 1-267); assay: protein-binding microarray (RPBM); PBS, 2% BSA, 51.3 ng/ul salmon testes DNA, 50 uM zinc acetate, 200 nM TF, 25 C, 1 h; high values mean tight binding; conditions: protein: recombinant; tags: N-terminal polyhistidine and DsRed monomer fusion (pET32a); label: CyDye5-dUTP incorporated in the synthesized complementary strand; 3' TTTTT single-stranded linker to array surface; dsDNA, one strand shown
T1 sequence: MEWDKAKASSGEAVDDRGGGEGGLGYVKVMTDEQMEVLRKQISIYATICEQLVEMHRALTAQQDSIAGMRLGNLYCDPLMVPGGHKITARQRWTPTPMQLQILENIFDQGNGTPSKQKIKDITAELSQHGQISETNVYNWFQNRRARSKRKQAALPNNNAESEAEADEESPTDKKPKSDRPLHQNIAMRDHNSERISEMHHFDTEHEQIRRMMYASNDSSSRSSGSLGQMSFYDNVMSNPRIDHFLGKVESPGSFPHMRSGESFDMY
Method in brief: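 Transcription factors were made in E. coli BL21-CodonPlus as N-terminal fusions to a polyhistidine tag and DsRed, then purified on Ni–NTA. After primer extension with Cy5-dUTP and blocking with 2% BSA, a custom Agilent array was exposed for 1 h at 25 °C to 200 nM protein in PBS, 2% BSA, salmon testes DNA and 50 µM zinc acetate. Washed arrays were scanned on an Axon 4000B, and the binding signal is per-feature fluorescence intensity in arbitrary units.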

Row | Sequence | binding signal
1 | TGATAAATAATTACATAACTCTTTCAATGTGACAAAGTAGCGGAGTCACCTAGTGCAG | 12400 fluorescence intensity (a.u.)
2 | AGGATTGACAGGAACTGAAAATATTCAGTTTGAGAATGCTCGGAGTCACCTAGTGCAG | 32000 fluorescence intensity (a.u.)
3 | ACGTAGACTAATAATAAAACAAATTACAGATTCCGCACGTCGGAGTCACCTAGTGCAG | 5620 fluorescence intensity (a.u.)
4 | GGGGCAAATTGGTCTTGTCATGAAAGCTAAAAGCCAAAGGCGGAGTCACCTAGTGCAG | 4730 fluorescence intensity (a.u.)
5 | ATGTACTGTTGACAGGGAACTGATCTTTAACCACTTCAGCCGGAGTCACCTAGTGCAG | 4890 fluorescence intensity (a.u.)
6 | GGTCCTAATTAATTATTTGCATGCATCCATGCCTTATATTCGGAGTCACCTAGTGCAG | 49700 fluorescence intensity (a.u.)
7 | GTTGTAATCTGTGTAATTAGTTATTGTGTTAGCCTATATTCGGAGTCACCTAGTGCAG | 10300 fluorescence intensity (a.u.)
8 | TGCCAATGTGATTGGCTCTTAGGGTAGATGAGGTGCCTTACGGAGTCACCTAGTGCAG | 33200 fluorescence intensity (a.u.)
9 | CCAAAATGATATTTCAAACTTCCAAAATATTAGCATGGCACGGAGTCACCTAGTGCAG | 4180 fluorescence intensity (a.u.)
10 | TTTAATTGATTTTGTTTAGAATTTGAGGACATGATCCACGCGGAGTCACCTAGTGCAG | 62900 fluorescence intensity (a.u.)
11 | GGGCATTTCAATCATGTATTATTTCTTCTATTTTGTTTTGCGGAGTCACCTAGTGCAG | 15800 fluorescence intensity (a.u.)
12 | CTAGAATTGAGGTAATGTGGATCAATTTATCACCCGCTGACGGAGTCACCTAGTGCAG | 6380 fluorescence intensity (a.u.)
13 | GAGTTGACATGTTAAATAGTATGTAAGGACAGACGCGGTACGGAGTCACCTAGTGCAG | 5830 fluorescence intensity (a.u.)
14 | AACGCTTAATTAGTTATGCTCTAATTCTTTGCTTAGTTTTCGGAGTCACCTAGTGCAG | 22600 fluorescence intensity (a.u.)
15 | TTAATTAATCATGTTTCAAAATTTGTATGTTTTCAATTCCCGGAGTCACCTAGTGCAG | 16800 fluorescence intensity (a.u.)
16 | AAGTTGATAGGAAACTGTACACTACACGATTGGATGCACACGGAGTCACCTAGTGCAG | 17600 fluorescence intensity (a.u.)
17 | CCATTATCAATCATGCTCGATGGGCAAGAGCACTGAAATCCGGAGTCACCTAGTGCAG | 12700 fluorescence intensity (a.u.)
18 | AAAAGTAAATTTGCAATTTGATTTCATACGAGTACAAAAGCGGAGTCACCTAGTGCAG | 9940 fluorescence intensity (a.u.)
19 | TCATGTAAAATTGATGTTACTAAATTTATCATTAATCAAACGGAGTCACCTAGTGCAG | 11700 fluorescence intensity (a.u.)
20 | AATAATTGCCTTCTTCCGTTCATTTTAGTATGTTAGACTGCGGAGTCACCTAGTGCAG | 33300 fluorescence intensity (a.u.)
21 | GGCTGATTGACAACTAATCAAACATAACCAATTGACCTTGCGGAGTCACCTAGTGCAG | 40600 fluorescence intensity (a.u.)
22 | GCTGATTTTCGTGCATGGACATGTTTCCCATCAGTATAAGCGGAGTCACCTAGTGCAG | 11500 fluorescence intensity (a.u.)
23 | ATGTGAATTATATTGGATGATAATTTAATATGTTTGTATTCGGAGTCACCTAGTGCAG | 8180 fluorescence intensity (a.u.)
